From the antibiotic and cytotoxicity screens of Wong et al. (2023)
The other results are listed elsewhere or left out.

These compounds were tested on HSkMC (human skeletal muscle cells) (assay: cytotoxicity call (relative viability < 0.9)). Conditions: 10 µM.
For Cc1ccc(S(=O)(=O)N(C)C[C@@H]2Oc3ncc(C#CC(C)(C)O)cc3C(=O)N([C@H](C)CO)C[C@@H]2C)cc1, the cytotoxicity call was “inactive”. With CCN1CCN(C(=O)NC(C(=O)NC2C(=O)N3C2SC(C)(C)C3C(=O)[O-])c2ccccc2)C(=O)C1=O.[Na+] (stereo not given) the cytotoxicity call was “inactive”. For C[C@@H](O)C#Cc1ccc2c(c1)O[C@H](CN(C)C(=O)Cc1ccccn1)[C@@H](C)CN([C@@H](C)CO)S2(=O)=O, the cytotoxicity call was “inactive”. C[C@H]1CN([C@@H](C)CO)S(=O)(=O)c2ccc(Br)cc2O[C@H]1CN(C)S(=O)(=O)c1ccccc1 was tested, and the cytotoxicity call was “inactive”. In the case of C[C@@H]1CN([C@H](C)CO)C(=O)c2cc(NC(=O)Nc3ccccc3)ccc2O[C@H]1CN(C)Cc1ccc(Oc2ccccc2)cc1, the cytotoxicity call is reported as “inactive”. C[C@H]1CN([C@@H](C)CO)C(=O)Cc2cc(NS(=O)(=O)c3ccccc3)ccc2O[C@@H]1CN(C)Cc1ccc(Cl)c(Cl)c1 was tested, and the cytotoxicity call was “inactive”. With COc1ccc(S(=O)(=O)N(C)C[C@H]2OCCCC[C@H](C)Oc3ccc(NS(=O)(=O)c4cn(C)cn4)cc3C(=O)N([C@@H](C)CO)C[C@@H]2C)cc1 the cytotoxicity call was “inactive”. With CCCC[P+](CCCC)(CCCC)Cc1ccc(NC(=O)[C@@H](Cc2ccc3ccccc3c2)N=C(NC2CCCCC2)NC2CCCCC2)cc1 the cytotoxicity call was “active”. With C[C@H](CO)N1C[C@H](C)[C@H](CN(C)S(C)(=O)=O)Oc2c(NS(=O)(=O)c3ccc(F)cc3)cccc2C1=O the cytotoxicity call was “inactive”. In the case of CCOC(=O)[C@H]1CCCCN1, the cytotoxicity call is reported as “inactive”.
